Experimental data as given in PubChem BioAssay AID1508624 (National Center for Advancing Translational Sciences (NCATS), 2021).
Screen size: about 48,000 compounds; about 120 (0.25%) were called active. Not shown: some 4% with an inconclusive outcome. Calls come from the whole dose curve; as a rule, active = well fitted activation curve with a large enough effect; inconclusive = small, poorly fitted or top-dose-only effect, or another doubt; inactive = no such curve, though single readings can be large or run the other way. The list shows a part of the results.

assay: Primary qHTS for Identification of Small Molecule Activators of Huntingtin-Antisense Promoter Activity; details: HEK293 HTT-AS promoter firefly luciferase reporter, 24 h; series mostly up to 57.5 µM; activity change, positive = activation: at the top concentration; note: nearly all actives have a fitted effect of over 55% in size
Summary of the method: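 HEK293 luciferase promoter-reporter cells (2,500/well) plated 24 h, then compounds added at up to 57.5 uM final for 24 h at 37 °C. Firefly luminescence by Dual-Glo, normalized to vehicle (0%) and zero RLU (-100%).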

Activity change, positive = activation, inactive:
Cc1nc(-c2ccccc2)sc1-c1ccc(SCC(=O)Nc2ccc(F)cc2F)nn1 -0.554%, Cc1oc2ncnc(N3CCCCC3)c2c1C(=O)NCC1CCN(Cc2ccc(F)cc2)CC1 0.7%, CCN(CC)CCOc1ccc(/C(=C(\Cl)c2ccccc2)c2ccccc2)cc1 -24.2%, CC(=O)Cn1nnc2sc(-c3ccccc3)cc2c1=O 23.7%, Cc1c(Cl)cccc1Nc1sc(C(=O)c2ccccc2)c(N)c1S(=O)(=O)c1ccccc1 -14.8%, COc1ccc(-n2c(C)c([N+](=O)[O-])c3ccc(O)cc32)cc1 -28.1%, COCCNC(=O)c1cc2n(n1)CCCN(Cc1ccc(C)cc1)C2=O 10.6%, CCOC(=O)N1CCc2c(sc3c2c(=O)n(Cc2ccccc2)c(=O)n3Cc2c(F)cccc2Cl)C1 -20.7%, CN(Cc1ccccc1)C(=O)c1cc2c(=O)n(C)c3ccccc3c2s1 2.73%, O=C1CC(c2nc3ccccc3n2Cc2c(F)cccc2Cl)CN1c1cccc(C(F)(F)F)c1 (stereo not drawn) -31.8%, CSc1cccc(N2C(=O)N(Cc3ccc([N+](=O)[O-])cc3)c3ccccc3S2(=O)=O)c1 -21%, COc1ccc(CC(=O)Nc2c(C(=O)Nc3ccccc3F)oc3ccccc23)cc1 4.68%, COc1ccc(NC(=O)CC2C(=O)N(c3ccc(C)cc3)C(=O)N2CCc2ccccc2)cc1 (stereo not drawn) 0%, COc1ccc(-c2ccc(NS(=O)(=O)c3ccc(F)c(C(F)(F)F)c3)cc2)nn1 -44.9%, COC(=O)c1c(NC(=O)CCCOc2ccc(C)cc2)sc2c1C(C(=O)OC)CC2 (stereo not drawn) -13.6%, CCc1cccc(CC)c1NC(=O)c1cc(S(=O)(=O)N2CCc3ccccc32)cn1C -25%, Cc1ccc(CN2CCCn3nc(C(=O)NCCN(C)C)cc3C2=O)cc1 20.3%, CCOC(=O)c1c(C)[nH]c(C)c1S(=O)(=O)N1CCC(C(=O)NCc2ccccc2)CC1 -5.98%, Cc1ccc(C)c(OCCSc2nc3ccccc3n2CC(=O)N2CCOCC2)c1 -21.1%, COc1ccc(NC(=O)Cc2coc3cc(C)cc(C)c23)c(OC)c1 -5.54%, COc1ccc2c(c1)c1c(c(=O)n(Cc3ccccc3)c(=O)n1Cc1cc(C)ccc1C)n2C -5.76%, COc1cccc(OCc2nc3ccccc3n2CCOc2ccccc2)c1 -26.7%, Cc1ccc(S(=O)(=O)N2CCCC(c3nc4c(nnn4Cc4ccc(OC(F)(F)F)cc4)c(=O)[nH]3)C2)cc1 (stereo not drawn) 10.6%, CC(C)C[C@H](NC(=O)[C@H](CCc1ccccc1)NC(=O)CN1CCOCC1)C(=O)N[C@@H](Cc1ccccc1)C(=O)N[C@@H](CC(C)C)C(=O)[C@@]1(C)CO1, CCOC(=O)c1ccc2c(c1)N(Cc1cccc([N+](=O)[O-])c1)C(=O)c1ccccc1S2 0.46%, Cn1nc(-c2ccc(OCC(=O)Nc3ccccc3)cc2)c2ccccc2c1=O -25%, O=C(Cn1c(=O)nc(-c2ccccc2)c2cc(Cl)ccc21)NCc1ccccc1 -39.7%, CCn1cc(S(=O)(=O)c2ccccc2)c(=O)c2cc(C)ccc21 -1.77%, CCOC(=O)c1[nH]c2ccccc2c1NC(=O)c1ccc(OC(C)C)cc1 3.86%, COc1cc(OC)cc(C(=O)Nc2ccc(S(=O)(=O)Nc3cc(C)nc(C)n3)cc2)c1 -1.08%, COc1ccc(CCN2CC(C(=O)NCCc3ccc(C)cc3)CC2=O)cc1OC (stereo not drawn) -19.6%, CCCCn1c(COc2cccc(OC)c2)nc2ccccc21 3.1%, NC(=O)N/N=C/c1ccc([N+](=O)[O-])o1, COc1cc(NC(=O)c2cc3c(=O)oc4ccc(C)cc4c3s2)cc(OC)c1OC -8.78%, CC(C)(CC(=O)OCC(=O)Nc1ccc(F)c(Cl)c1)CC1=NS(=O)(=O)c2ccccc2N1 -38.7%, O=C(CSc1nccn1-c1ccc(Cl)cc1)Nc1nc2ccccc2s1 -8.81%, Brc1ccc(-c2cc3c(N4CCN(c5ccccc5)CC4)nccn3n2)cc1 -6.18%, O=C(O)c1[nH]n(-c2ccc(S(=O)(=O)O)cc2)c(=O)c1N=Nc1ccc(S(=O)(=O)O)cc1 -2.95%, Cc1ccccc1NC(=O)c1sc2nc(-c3ccncc3)ccc2c1N -23.5%, CCOC(=O)c1ccc(N2C(=O)c3n[nH]c(-c4cccs4)c3C2c2ccc(C)cc2)cc1 (stereo not drawn) -4.52%, CCCN(CCC)CCCNC(=O)Cn1ncc2c3ccccc3n(Cc3ccc(F)cc3)c2c1=O -4.42%, Cc1nc(C)c(-c2ccc(SCC(=O)Nc3ccccc3F)nn2)s1 3.64%, COCCCNC(=O)CCCn1c(=O)c2cccn2c2cccnc21 -8.85%, COc1cccc(CNC(=O)CCNS(=O)(=O)c2cccc3nsnc23)c1 -21.4%, Cc1cc2ccccc2n1-c1ccc(C(=O)N2CCCCC2)s1 0.65%, CCCCNC(=O)CSc1nc2cc3c(cc2c(=O)n1CCCCCC(=O)NCc1ccc2c(c1)OCO2)OCO3 -2%, Cc1ccc(-n2c(SCC(=O)NCc3ccc(F)cc3)nc3c([nH]c4ccccc43)c2=O)cc1 -38%, COc1ccc(N(CC(=O)NCCc2ccccc2)S(=O)(=O)c2ccccc2)c(OC)c1 0.9%, COc1cc2c(cc1OC)C(COc1ccc(F)cc1)N(C(=O)Cc1ccc(F)cc1)CC2 (stereo not drawn) -23.2%, Cc1ccc(Nc2c(-c3ccncc3)nc3ccc(C)cn23)cc1 1.18%, CCOc1ccc(OCC)c(S(=O)(=O)N2CCN(c3cccc(C)c3C)CC2)c1 0.333%, CCOC(=O)C1CCN(c2ncnc3c2nnn3C)CC1 5.27%, Cc1ccc(CN(C(=O)COc2cccc([N+](=O)[O-])c2)c2ccccn2)cc1 -20.6%, CC(C)NC(=O)c1ccc(-n2c(-c3ccccc3)cc3c2CCCCC3)cc1 10.6%, COc1ccc(Cl)cc1NC(=O)Cn1cc(C(=O)c2ccncc2)c(=O)c2cc(C)ccc21 -2.07%, Nc1ncc(S(=O)(=O)NCc2ccc(Cl)cc2)cn1 -5.01%, CCC(Sc1nc2cc(OC)c(OC)cc2c(=O)n1CCc1ccc(Cl)cc1)C(=O)NCCOC (stereo not drawn) -1.56%, COc1cc2nc(SCc3cccc(Cl)c3)n3nc(CCn4nc(C)cc4C)nc3c2cc1OC 21.8%, CCOc1ccc(-c2cc(OC(=O)c3ccccc3)c3c(C)oc(C)c3c(=O)c2)cc1 -20.9%, Cn1nnc2c(N3CCN(c4ccccc4F)CC3)ncnc21 37.3%, O=C(CSc1nc2ccccc2n1Cc1ccccc1F)NCc1ccccc1 -17.7%, Cc1ccccc1C(=O)Nc1cccc(C(=O)OCc2cc(=O)n3c4c(sc3n2)CCCC4)c1 -2.02%, COc1cccc(-c2cc(C(=O)Nc3cc(OC)c(OC)c(OC)c3)on2)c1 -25.8%, COc1cccc2c1cc1c(=O)n(CC(=O)N3CCN(c4cc(Cl)ccc4C)CC3)nc(C)n12 -1.99%, COc1ccc(-c2nc(Cn3c(SCc4ccc(C)cc4)nc4cccnc43)c(C)o2)cc1OC -14.1%, O=C(CCCn1c(=O)c2cccn2c2cccnc21)NCc1ccc(F)cc1 -0.358%, CCC1CCCCN1CC(=O)N1CCCc2c1c(=O)oc1ccc(OCc3ccccc3)cc21 (stereo not drawn) -49.5%, CCN1CCN(c2ccc(NS(=O)(=O)c3c(C)nc4sccn4c3=O)cc2Cl)CC1 -45.4%, COc1ccc(CNC(=O)CCC(=O)N2CCSc3ccccc32)cc1 -2.24%, CCOc1ccc(-n2c(C)nc3cc(C(=O)NCCC4=CCCCC4)ccc32)cc1 -4.13%, CCCC1OC2C[C@@H]3[C@H]4CCC5=CC(=O)C=C[C@]5(C)[C@H]4C(O)C[C@]3(C)[C@]2(C(=O)CO)O1 (stereo partly drawn) -13.8%, CCOC(=O)c1ccc(NC(=O)C2=C(C)Nc3nc(SCc4ccc(Cl)cc4)nn3C2c2ccc(OC)cc2)cc1 (stereo not drawn) -10%, COc1ccc(-c2nnc(SCC(=O)Nc3ccc(Cl)cc3)s2)cc1 -69.9%, Cc1cc(C)cc(N2CCn3c2nc2c3c(=O)n(Cc3ccc(Cl)cc3)c(=O)n2C)c1 -17.1%, CCCS(=O)(=O)c1ncc(Cl)c(C(=O)Nc2scc(-c3ccccc3)c2C(=O)OCC)n1 -93.9%, CC(=O)N[C@@H](CCC(=O)O)C(=O)O -1.57%, O=S(=O)(c1ccccc1)c1nc(-c2ccc(Cl)cc2Cl)oc1N1CCCCCC1 8.62%, CN(C)CCC[C@@]1(c2ccc(F)cc2)OCc2cc(C#N)ccc21 -8.43%, COc1ccc(CNC(=O)Cn2nnc(-c3ccc(S(C)(=O)=O)cc3)n2)cc1 -10.6%, CCOC(=O)c1cccc(NC(=O)C2CCN(S(=O)(=O)c3ccc4c(c3)oc(=O)n4C)CC2)c1 -33.3%, COc1ccc(S(=O)(=O)N(CCc2ccccc2)CC(=O)Nc2cccc(OC)c2)cc1 -21.3%, COc1ccccc1N1CCN(c2ncnc3c2cnn3C)CC1 8.87%, CCc1ccc(C(=O)COC(=O)C(Cc2c[nH]c3ccccc23)NC(=O)c2ccc(Br)cc2)cc1 (stereo not drawn) 7.71%, CCOc1ccc(C2c3cc(OCC)c(OCC)cc3CC(=O)N2c2ccc(C(=O)O)cc2)cc1OCC (stereo not drawn) -1.21% [at 11.5 µM, percent change from vehicle, -100% = no light], CCc1cccc(C)c1NC(=O)Cn1ccn(-c2ccc(F)cc2)c(=O)c1=O -4.23%, Cc1nc2ccc(S(=O)(=O)N(C)CC(=O)Nc3ccc(Br)c(C)c3)cc2s1 -38%, CCOc1ccc(C2CC(=O)c3c([nH]c(C(=O)OCc4ccccc4)c3C)C2)cc1 (stereo not drawn) -16.5%, COc1ccc(CCN2C(=O)c3oc4ccc(F)cc4c(=O)c3C2c2ccc(C(C)(C)C)cc2)cc1 (stereo not drawn) -12.2%, Cc1ccccc1NS(=O)(=O)c1ccc(Br)s1 -24.4%, CN(Cc1ccccc1)S(=O)(=O)c1ccc(F)c(C(=O)Nc2cccc(Cl)c2Cl)c1 -4.92%, CCN(CC)c1cc2c(cc1F)c(=O)c(S(=O)(=O)c1cc(C)ccc1C)cn2Cc1ccccc1 -8.81%, Cc1cccc(CC2C(=O)Nc3ccccc32)c1 (stereo not drawn) -28.8%, Cc1c(/C=C(\C#N)C(=O)Nc2cccc(Cl)c2)c2ccccc2n1Cc1ccccc1Cl -11.4%
